In ChEMBL document CHEMBL4888484, “Replenishing the malaria drug discovery pipeline: Screening and hit evaluation of the MMV Hit Generation Library 1 (HGL1) against asexual blood stage Plasmodium falciparum ,using a nano luciferase reporter read-out” (2022):
Out of some 150,000 compounds screened, about 540 (0.36%) showed an effect of 50% or more. Some of the results follow.

The compounds below were run on Plasmodium falciparum (assay: Primary screen in NF54 nanoGlo assay, in single point, at 2uM, 72h; a lower Z score goes with more inhibition). Conditions: timepoint 72 hour.
Assay type: functional, Erythrocyte

| SMILES | % Inhibition [%] | Z score |
| --- | --- | --- |
| O=C(CCc1ccsc1)N1CC[C@H](CN2CCCCC2)C1 | 9 | -1.37 |
| O=C(CN1C(=O)COc2ccc(Cl)cc21)NCCOc1ccccc1 | 3 | -0.64 |
| CNC(=O)Cc1csc(NC(=O)c2ccnc(OCC3CC3)c2)n1 | -16 | 3.1 |
| O=C1CN(C(=O)C[C@H]2CCC3(CCC3)O2)c2cc(F)c(F)cc2N1 | -12 | 1.54 |
| COc1ccc(C[C@@H]2C3=C(CCCC3)CCN2C(=O)[C@@H]2CCCN2C(N)=O)cc1 | -5 | 0.83 |
| Cc1cnc(NC(=O)CN(CC(C)C)S(C)(=O)=O)s1 | -5 | 0.87 |
| C[C@@H](C(=O)Nc1cccc2c1ccn2Cc1ccccc1)n1nnc2ccccc2c1=O | -3 | 0.44 |
| O[C@@H](Cn1cnnc1)c1ccc(OC(F)(F)F)cc1 | 8 | -1.18 |
| COc1cc(-c2nnc(-c3ocnc3C)o2)ccc1OCCC(C)C | -6 | 0.74 |
| CC(C)(C)n1nc(-c2ccccc2)nc1[C@H](N)CO | -2 | 0.34 |
| CC(C)[C@H](NC(=O)C1=CCCC1)C(C)(C)O | -6 | 0.66 |
| O=C(c1cccc(-c2ccc(Cl)cn2)c1)N1CCC(N2CCCC2)CC1 | -15 | 1.97 |
| Cc1cnn(CCC(=O)NC[C@@]23CCC[C@@H]2OCC3)c1 | -7 | 1.35 |
| CCCNS(=O)(=O)N1CCN(c2cc(C3CC3)n[nH]2)CC1 | 25 | -2.8 |
| CNC(=O)[C@@H]1CC[C@](C)(C(=O)NCc2nc(-c3cnccn3)n[nH]2)C1(C)C | 0 | -0.07 |
| CO[C@@H](C)C(=O)NS(=O)(=O)c1ccc2c(c1)OCCCO2 | -15 | 2.28 |
| CC[C@@H](CO)NC(=O)Nc1ccn(-c2ncccc2Cl)n1 | 2 | -0.2 |
| Cc1cc(C(=O)N2CC[C@H](CN)C2)c2cc(Br)ccc2n1 | -5 | 0.6 |
| CN1CCC(N(c2ccccc2)S(=O)(=O)c2cc(Cl)cc3c2OCC3)CC1 | -6 | 0.62 |
| CC1(C(=O)N2CCC[C@H](CN3CCOCC3)C2)COC1 | -15 | 1.64 |
| COc1ccccc1C(=O)N[C@@H]1CN(c2ccncn2)C[C@H]1CO | -7 | 1.25 |
| CCN(C(=O)NCC1CCCO1)C(C)CS(=O)(=O)CC (stereo not given) | -12 | 2.24 |
| O=C1CNC(=O)N1[C@H]1CCN(S(=O)(=O)CCc2ccccc2)C1 | -3 | 0.6 |
| CC(C)c1nc(NC(=O)c2cnc(Cc3ccccc3)s2)n(C)n1 | -5 | 0.48 |
| CCOC(=O)C1C(=O)NC2c3ccccc3OC3CCCC[C@]312 (stereo not given in full) | -7 | 0.93 |
| CC(C)CC(=O)N(CCc1nc(-c2ccc(N(C)C)cc2)no1)C1CCCCC1 | -3 | 0.37 |
| COc1ccccc1C(=O)N(Cc1cccc(OC)c1OCc1nc(CO)cs1)C1CC1 | -8 | 1.4 |
| CC(=Cc1ccccc1)CN(C)C[C@H]1CCOC1 | 0 | 0.02 |

| SMILES | % Inhibition [%] | Z score |
| --- | --- | --- |
| CCn1cc(S(=O)(=O)N2C[C@H](NC(C)=O)[C@@H](c3ccc(C)cc3)C2)cn1 | 2 | -0.46 |
| CCN(CCN1CCCC1)Cc1cc2c(cc1OC)OCCCO2 | 7 | -1.41 |
| CCCn1cc(-c2cc(-c3cnc(N(C)C)nc3)c(C#N)c(N)n2)c(C)n1 | 7 | -1 |
| CCC[C@@]1(C(F)(F)F)CCCN1C(=O)c1cnc(C(C)(C)C)nc1 | -10 | 1.3 |
| CCS(=O)(=O)c1cc(F)ccc1NC(=O)N[C@@H]1C=CCCC1 | -9 | 1.31 |
| CC1CN(C(=O)NC(C)c2csc(C3CC3)n2)CCO1 (stereo not given) | -3 | 0.36 |
| O=C(CCC1CCN(Cc2nc3c(s2)CCCC3)CC1)Nc1ccccc1 | -13 | 1.9 |
| COc1cccc(-c2nnc3c4ccccc4nc(N4CCC(Cc5ccccc5)CC4)n23)c1 | -3 | 0.49 |
| C[C@H](Nc1cnn(C)c1)c1nc2ccccc2o1 | 10 | -0.94 |
| CN1CCN2CCN(C(=O)c3ccc4c(c3)ncn4CCO)C[C@H]2C1=O | -14 | 1.32 |
| CC(C)CCn1c(CN2CCC[C@@](O)(CO)CC2)nc2ccccc21 | -12 | 1.58 |
| O=C(CC1CC2CCC1C2)N1CCCC(CO)C1 (stereo not given) | -9 | 1.32 |
| Cc1ncsc1C(=O)NCC(F)(F)C(F)F | 2 | -0.24 |
| CCn1ncc2c1NC(=O)C[C@@H]2c1[nH]cnc1C | -10 | 1.22 |
| CN(C)S(=O)(=O)c1ccc(-c2nc(-c3cnn(C)c3)cs2)cc1 | -1 | 0.14 |
| CNc1nc([C@H]2CCOC2)cc(N2CCC(N3CCc4ccccc4C3)CC2)n1 | 10 | -1.32 |
| O=C(N[C@@H]1C2C=CC(C2)[C@H]1C(=O)N1CCCC1)OCc1ccccc1 (stereo not given in full) | -17 | 1.95 |
| COc1ccncc1NC(=O)c1ncsc1C(F)(F)F | 3 | -0.56 |
| O=C1N(CC2CC2)CCC[C@@]12CCN(c1nc(CO)cs1)C2 | -2 | 0.29 |
| Cc1ccc(C)n1-c1nc2ccc(C(=O)NC3CC3)cc2s1 | 3 | -0.42 |
| CCN(Cc1ccoc1)C(=O)OC(C)(C)C | -1 | 0.09 |
| C=CCN(Cc1ccccc1OCC)C(=O)c1cccc(=O)[nH]1 | 3 | -0.5 |
| O=C(C[C@H]1C(=O)NCCN1Cc1cccc2ccccc12)NCC1CC1 | -8 | 1.5 |
| COc1ccc(CCNC(=O)COc2ccc(S(=O)(=O)N3CCCCC3)cc2)cc1OC | -6 | 0.87 |
| Cc1cc(-c2cccs2)nn1CCNC(=O)N1CCNC1=O | 16 | -2.1 |
| Cc1ccn(CCn2nc(C3CCNCC3)n(Cc3ccccc3)c2=O)n1 | -7 | 1.06 |
| COc1ccccc1C(N)=NOCC(=O)N1CCO[C@@H](C)C1 | -10 | 1.36 |
